Values joined by “and” are separate entries in the source; they are usually repeats but may differ in a detail not shown here. Equal entries are not always repeated. Screen size: about 280,000 compounds; about 1,100 (0.39%) were called active. The inconclusive results got no clear call from the source; some entries with a clear call stand among them for comparison. Calls come from the whole dose curve; as a rule, active = well fitted inhibition curve with a large enough effect; inconclusive = small, poorly fitted or top-dose-only effect, or effect the other way; inactive = flat fitted curve, though single readings scatter. Potencies of inconclusive entries are doubtful fits and often do not repeat.
molecular target: Microtubule-associated protein tau (Homo sapiens) (UniProt P10636); experiment: qHTS for Inhibitors of Tau Fibril Formation, Fluorescence Polarization; settings: K18 P301L tau heparin fibrillization, Alexa594 FP, 6 h; series mostly up to 57.7 µM; activity, negative = inhibition: at the top concentration; note: nearly all actives have a fitted effect of over 55% in size
Procedure, shortened: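 K18 P301L tau (15 uM unlabeled/0.24 uM Alexa 594-labeled, final) + compound + heparin 20 uM final; 100 mM NaOAc pH 7; 6 hr 37 C; ThT 30 uM final added, 1 hr RT; FP ex 555/em 632 nm.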
% is set by controls: 0 for no effect and ±100 for the full control effect; potency is the fitted concentration of half-maximal effect; tags give direction and shape of the fitted curve.

Chain of UniProt P10636 (P10636 whole entry, looked up): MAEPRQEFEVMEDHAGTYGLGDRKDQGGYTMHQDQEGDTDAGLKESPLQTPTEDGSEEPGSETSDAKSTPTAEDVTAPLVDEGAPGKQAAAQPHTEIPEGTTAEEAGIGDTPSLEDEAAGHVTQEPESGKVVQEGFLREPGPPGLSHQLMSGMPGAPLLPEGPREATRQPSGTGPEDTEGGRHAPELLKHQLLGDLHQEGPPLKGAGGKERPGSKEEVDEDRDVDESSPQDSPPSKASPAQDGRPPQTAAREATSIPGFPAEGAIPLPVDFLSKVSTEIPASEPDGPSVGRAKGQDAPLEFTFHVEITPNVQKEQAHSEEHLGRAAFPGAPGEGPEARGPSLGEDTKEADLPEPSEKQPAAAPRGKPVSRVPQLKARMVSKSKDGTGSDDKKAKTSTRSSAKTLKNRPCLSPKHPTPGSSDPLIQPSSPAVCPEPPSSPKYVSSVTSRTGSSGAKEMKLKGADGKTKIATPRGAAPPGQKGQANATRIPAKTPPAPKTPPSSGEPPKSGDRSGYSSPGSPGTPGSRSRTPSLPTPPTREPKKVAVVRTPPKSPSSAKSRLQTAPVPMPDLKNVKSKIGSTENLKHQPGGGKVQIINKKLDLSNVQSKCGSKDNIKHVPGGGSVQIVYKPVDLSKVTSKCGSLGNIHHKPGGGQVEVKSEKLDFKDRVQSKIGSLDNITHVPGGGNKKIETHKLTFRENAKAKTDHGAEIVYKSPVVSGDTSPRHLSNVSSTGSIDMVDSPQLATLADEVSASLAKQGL

Row | Structure (SMILES) | activity, negative = inhibition | Potency
1 | CCOc1ccc(S(=O)(=O)NC(C)C)cc1C(N)=O | inactive: 2.86% | 
2 | COc1cccc(-c2noc(-c3ccc4c(c3)OCO4)n2)c1 |  | inconclusive: 15.8 µM [inhibitor, partial curve]
3 | c1cnc2c(c1)ccc1cccnc12 |  | inconclusive: 31.6 µM [inhibitor, single point] and inconclusive: 35.5 µM [inhibitor, single point] and inconclusive: 25.1 µM [inhibitor, partial curve]
4 | CC(=O)c1cccc(NC(=O)CCCSc2nc(-c3ccco3)cc(C(F)(F)F)n2)c1 | inactive: -10% | 
5 | Cc1nn(Cc2ccc(F)cc2)c(C)c1NC(=O)C1c2ccccc2Oc2ccccc21 |  | inconclusive: 17.8 µM [inhibitor, partial curve, poor fit]
6 | COc1ccc2nc3ccccc3nc2c1N |  | inconclusive: 12.6 µM [inhibitor, partial curve]
7 | COc1ccc(Cl)cc1C(=O)Nc1ccc(NC(=O)c2ccco2)cc1 |  | inconclusive: 5.62 µM [inhibitor, full curve]
8 | COc1ccc(NC(=O)CN2C(=O)C(c3ccc(C)cc3)=NC23CCCCCC3)cc1Cl |  | inconclusive: 28.2 µM [inhibitor, single point]
9 | COc1cc(NC(=O)C2CCN(S(=O)(=O)c3c(C)noc3/C=C/c3c(C)cc(C)cc3C)CC2)cc(OC)c1 |  | inconclusive: 17.8 µM [inhibitor, partial curve]
10 | CCOC(=O)c1cccc(NC(=O)NC2COc3ccccc3C2)c1 (stereo not drawn) |  | inconclusive: 22.4 µM [inhibitor, single point]
11 | COc1ccccc1C/C(N)=N/OC(=O)c1ccc(C)c([N+](=O)[O-])c1 | inactive: 0.128% | 
12 | COc1ccc(CCn2cnc3c([nH]c4ccccc43)c2=O)cc1 | inactive: -4.67% | 
13 | O=C(CSc1nc2ccccc2c(=O)n1-c1ccc(F)cc1F)c1c[nH]c2ccccc12 |  | active: 28.2 µM
14 | COc1cc(NS(=O)(=O)c2ccc(Nc3nc(-c4ccccc4)cs3)cc2)nc(OC)n1 |  | inconclusive: 12.6 µM [activator, partial curve, poor fit]
15 | CCc1ccc(-n2c(CSc3nnnn3-c3ccccc3)nc3ccccc3c2=O)cc1 |  | inconclusive: 0.447 µM [inhibitor, partial curve, poor fit]
16 | Cc1ccc(S(=O)(=O)N2CCCC2)cc1S(=O)(=O)N1CCCC1 | inactive: -9.08% | 
17 | Cc1cccc(NC(=O)c2cc3c(C)nn(-c4ccccc4)c3s2)c1 |  | inconclusive: 20 µM [inhibitor, partial curve]
18 | C/C(=N\NC(=O)c1ccccc1F)c1ccc2c(c1)Nc1ccccc1S2 |  | inconclusive: 2.82 µM [activator, partial curve]
19 | CCNC(=S)N1CCN(C(c2ccccc2)c2ccccc2)CC1 |  | inconclusive: 20 µM [inhibitor, partial curve, poor fit]
20 | CCOc1ccccc1NC(=O)c1cnc2n(c1=O)CCS2 |  | inconclusive: 10 µM [inhibitor, partial curve]
21 | O=C(Cc1ccccc1)NC1c2ccccc2-c2ccccc21 |  | inconclusive: 39.8 µM [inhibitor, single point]
22 | O=C(Cc1ccc(F)cc1)NCCc1csc2nc(-c3ccc(Cl)cc3)nn12 | inactive: -8.37% | 
23 | COc1ccc(C(=O)c2no[n+]([O-])c2C(=O)c2ccc(OC)cc2)cc1 |  | inconclusive: 39.8 µM [inhibitor, single point]

Row | Structure (SMILES) | activity, negative = inhibition | Potency
24 | CCOC(=O)C1(Cc2ccc(OC)cc2)CCN(C(=O)c2ccc3[nH]ccc3c2)CC1 |  | inconclusive: 35.5 µM [activator, single point]
25 | CC1=C(C)NC(=S)SC1 | inactive: -2.54% | 
26 | CC1=C(C(=O)Nc2ccccc2C)C(c2ccc[nH]2)n2ncnc2N1 (stereo not drawn) | inactive: -6.27% | 
27 | Cc1ccc(N(CC(=O)Nc2ccccc2C(=O)NCc2ccco2)S(=O)(=O)c2ccccc2)cc1C |  | inconclusive: 15.8 µM [inhibitor, single point]
28 | CCOC(=O)C1=C(O)/C(=C\c2ccc(CNS(=O)(=O)c3ccc(Br)cc3)o2)N=C1C | inactive: -8.15% | 
29 | Clc1cccc(/C(Cc2nc3ccccc3[nH]2)=N\Nc2ccccc2)c1 |  | inconclusive: 6.31 µM [activator, single point]
30 | CCC(C(=O)OCC(=O)Nc1cc(Cl)cc(Cl)c1)c1ccccc1 (stereo not drawn) |  | active: 31.6 µM
31 | O=C(NC(=S)Nc1ccc(N2CCOCC2)c(Cl)c1)c1cncc(Br)c1 | inactive: 8.24% | 
32 | CCn1c(C)c(C(C)=O)c(N2CCCCC2)nc1=S | inactive: -0.784% | 
33 | Cc1c(C(=O)Nc2ccc(Br)cc2)cnn1C | inactive: -4.15% | 
34 | COc1cccc(/C=N/NC(=O)c2[nH]nc3c2CCc2ccccc2-3)c1O |  | inconclusive: 25.1 µM [activator, single point]
35 | O=C(Nc1cccc(-c2nc3ccccc3[nH]2)c1)c1cccc(NC(=O)c2ccco2)c1 |  | inconclusive: 31.6 µM [inhibitor, partial curve, poor fit]
36 | Cc1cccc(Nc2nc(N)nc(-c3oc4ccccc4c3C)n2)c1 |  | inconclusive: 2.51 µM [inhibitor, full curve]
37 | Cn1c2ccc(F)cc2c2ncn(Cc3ccco3)c(=O)c21 | inactive: 10.3% | 
38 | Cc1ccc(N=Nc2c(N)[nH]n3c(=O)cc(-c4ccccc4)nc23)cc1 | inactive: 1.53% | 
39 | O=C(CSc1oc(-c2ccco2)nc1S(=O)(=O)c1ccccc1)NCC1CCCO1 (stereo not drawn) |  | inconclusive: 44.7 µM [inhibitor, single point]
40 | O=C(NC1CC(=O)N(c2ccc(F)cc2)C1)C(c1ccccc1)c1ccccc1 (stereo not drawn) |  | inconclusive: 35.5 µM [inhibitor, partial curve, poor fit]
41 | Cc1ccc(NC(=O)CSC(N)=O)cc1Cl |  | inconclusive: 28.2 µM [inhibitor, single point]
42 | COc1cccc(N=Nc2c(N)[nH]n3c(=O)c4c(nc23)CCCC4)c1 | inactive: 3.18% | 
43 | COc1ccc(N(CC(=O)Nc2ccc(OC)c(Cl)c2)S(=O)(=O)c2c(C)noc2C)cc1 |  | inconclusive: 15.8 µM [inhibitor, partial curve]
44 | COc1ccccc1N=Nc1[nH]c2ccc(C)cc2c1O |  | inconclusive: 31.6 µM [activator, single point]
45 | CCOc1ccc(C(=O)Nc2cc(-c3nc4ccccc4[nH]3)ccc2Cl)cc1[N+](=O)[O-] |  | inconclusive: 8.91 µM [inhibitor, partial curve]
46 | CC(=O)c1ccc(NC(=O)c2nn(C)c3c2COc2ccccc2-3)cc1 |  | inconclusive: 39.8 µM [inhibitor, single point]

Row | Structure (SMILES) | activity, negative = inhibition | Potency
47 | COc1ccc(OCc2nnc(NC(=O)Nc3ccccc3F)s2)cc1 |  | inconclusive: 39.8 µM [inhibitor, single point]
48 | CCCNC(=S)N(Cc1ccccc1)Cc1nc2ccccc2c(=O)[nH]1 | inactive: 2.55% | 
49 | O=C1N/C(=N\N=C\c2ccccn2)SC1Cc1cccc(SC(F)F)c1 (stereo not drawn) | inactive: 4.16% | 
50 | CCOc1ccc(Nc2nc(Cc3nnc(SCC(=O)NC4CCCC4)n3C)cs2)cc1 |  | inconclusive: 35.5 µM [activator, partial curve, poor fit]
51 | CCc1cc2c(-c3ccccc3)cc(=O)oc2c2c1OCN(Cc1ccc(C)cc1)C2 |  | inconclusive: 7.08 µM [activator, single point]
52 | CC(Oc1ccccc1F)C(=O)N1CCC(c2nc3ccccc3o2)CC1 (stereo not drawn) | inactive: 5.29% | 
53 | CCOc1ccccc1N1CCN(C(=O)C(Sc2ccccc2)c2ccccc2)CC1 (stereo not drawn) |  | inconclusive: 14.1 µM [activator, partial curve, poor fit]
54 | O=C(Nc1cc(-c2ccc(F)c(F)c2)no1)c1ccccc1F |  | inconclusive: 15.8 µM [inhibitor, single point]
55 | CC1(OC(=O)C2CCCC2)C(=O)C=C2C=C(c3ccsc3)N(CCc3ccccn3)C=C2C1=O (stereo not drawn) |  | inconclusive: 14.1 µM [inhibitor, partial curve]
56 | O=C1C=CC(=O)C(C2=C3C(=O)N(CCc4ccccc4)CC(=O)N3CCC2)=C1 |  | inconclusive: 22.4 µM [inhibitor, single point]
57 | O=c1ccc2ccc(O)c(O)c2o1 |  | inconclusive: 39.8 µM [inhibitor, single point]
58 | COCCn1c(SCC(=O)c2ccccc2)nc2c(c1=O)SCC2 |  | inconclusive: 44.7 µM [inhibitor, single point]
59 | Cc1ccc(Cl)cc1NC(=O)N(C)CCO |  | inconclusive: 5.62 µM [inhibitor, single point]
60 | Cc1cccc(NCN2C(=O)c3ccncc3C2=O)n1 |  | inconclusive: 0.224 µM [inhibitor, full curve, poor fit]
61 | COc1ccc(Cl)cc1NC(=O)COC(=O)CC(C)(C)CC1=NS(=O)(=O)c2ccccc2N1 |  | inconclusive: 12.6 µM [inhibitor, partial curve]
62 | Cc1ccc(C)c2[nH]c(=O)c(CN(CCN3CCOCC3)Cc3nnnn3CC3CCCO3)cc12 (stereo not drawn) | inactive: -1.49% | 
63 | CCOc1ccc(NC(=S)NC(=O)c2c(Cl)c(C)nn2C)c([N+](=O)[O-])c1 | inactive: -9.69% | 
64 | O=c1cc2nc(-c3ccccc3F)nc(SCc3ccc(Br)cc3)n2[nH]1 |  | inconclusive: 39.8 µM [inhibitor, single point]
65 | COc1ccccc1-n1c(-c2ccccc2)c[nH]c1=S | inactive: -0.0742% | 
66 | COc1ccc(C(=O)CSc2nnc(-c3ccco3)c(-c3ccco3)n2)cc1 |  | inconclusive: 35.5 µM [inhibitor, single point]
67 | CCOC(=O)c1c(NC(=O)c2ccccc2C)sc2c1CCCC2 |  | inconclusive: 31.6 µM [inhibitor, single point]
68 | Cc1cccc(C(=O)N2CCN(c3ncnc4c3cnn4-c3ccccc3)CC2)c1 | inactive: -4.92% | 

Source: PubChem BioAssay AID1468 (National Center for Advancing Translational Sciences (NCATS), 2008)
